The supplement of paper PMC12217912
Some of the results follow. The full chains were built here from the parent and the listed change. Values near 0.05 are background.

B1: TEV protease; numbered along this chain (parent)
chain: MGESLFKGPRDYNPISSSICHLTNESDGHTTSLYGIGFGPFIITNKHLFRRNNGTLVVQSLHGVFKVKDTTTLQQHLVDGRDMIIIRMPKDFPPFPQKLKFREPQREERICLVTTNFQTKSMSSMVSDTSCTFPSGDGIFWKHWIQTKDGQCGSPLVSTRDGFIVGIHSASNFTNTNNYFTSVPKNFMELLTNQEAQQWVSGWRLNADSVLWGGHKVFMVKPEEPFQPVKEATQL

Variants of: B1
Assay: raw area under fraction-flipped curve 0-4 h after induction (AUC4h, not background-subtracted), DNA-recorder readout of cleavage of the substrate (dimensionless); higher = more cleavage of the substrate by the protease variant
Settings: temperature: 34 °C; time window: 0-4 h after rhamnose induction
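Further: Bxb1 expression induced with 0.2% (w/v) L-rhamnose at OD600 near 0.5, cultures sampled hourly, flipped fraction per protease–substrate barcode pair counted by paired-end Illumina sequencing.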

| Variant | area with substrate ENLYFQC | area with substrate ENLYFQD | area with substrate ENLYFQI | area with substrate ENLYFQK | area with substrate ENLYFQM | area with substrate ENLYFQN | area with substrate ENLYFQQ | area with substrate ENLYFQR | area with substrate ENLYFQS | area with substrate ENLYFQT | area with substrate ENLYFQE | area with substrate ENLYFQF | area with substrate ENLYFQG | area with substrate ENLYFQL | area with substrate ENLYFQV | area with substrate ENLYFQW | area with substrate ENLYFQY | area with substrate ENLYFQH | area with substrate ENLYFQP |
| --- | --- | --- | --- | --- | --- | --- | --- | --- | --- | --- | --- | --- | --- | --- | --- | --- | --- | --- | --- |
| MGESLFKGPRDYNPISSSICHLTNESDGHTTSLYGIGFGPFIITNKHLFRRNNGTLVVQSLHGVFKVKDTTTLQQHLVDGRDMIIIRMPKDFPPFPQKLKFREPQREERICLVTTNFQTKSMLSMVSDTSCTFPSGDGIFWKHWIQTKDGQCGSPLVSTRDGFIVGIHSASNFTNTNNYFTSVPKNFMELLTNQEAQQWVSGWRLNADSVLWGGHKVFMVKPEEPFQPVKEATQL [S123L] | 0.124 | 0.0628 | 0.071 | 0.0632 | 0.0501 | 0.0911 | 0.0919 | 0.0061 | 0.104 | 0.0731 |  |  |  |  |  |  |  |  |  |
| MGESLFKGPRDYNPISSSICHLTNESDGHTTSLYGIGFGPFIITNKHLFRRNNGTLVVQSLHGVFKVKDTTTLQQHLVDGRDMIIIRMPKDFPPPPQKLKFREPQREERICLVTTNFQTKSMSSMVSDTSCTFPSGDGIFWKHWIQTKDGQCGSPLVSTRDGFIVGIHSASNFTNTNNYFTSVPKNFMELLTNQEAQQWVSGWRLNADSVLWGGHKVFMVKPEEPFQPVKEATQL [F95P] | 0.0575 |  |  |  | 0.0486 |  |  | 0.048 | 0.0577 |  | 0.0783 | 0.0515 | 0.0513 | 0.0437 | 0.0331 | 0.0466 | 0.0998 |  |  |
| MGESLFKGPRDYNPISSSICHLTNESDGHTTSLYGIGFGPFIITNKHLFRRNNGTLVVQSLHGVFKVKDTTTLQQHLVDGRDMIIIRMPKDFPPEPQKLKFREPQREERICLVTTNFQTKSMSSMVSDTSCTFPSGDGIFWKHWIQTKDGQCGSPLVSTRDGFIVGIHSASNFTNTNNYFTSVPKNFMELLTNQEAQQWVSGWRLNADSVLWGGHKVFMVKPEEPFQPVKEATQL [F95E] | 0.0536 |  |  | 0.0541 | 0.0558 | 0.0403 |  | 0.0499 | 0.0521 | 0.0504 | 0.0568 | 0.0572 | 0.115 | 0.0422 |  |  | 0.0554 | 0.0254 | 0.0611 |
| MGESLFKGPRDYNPISSSICHLTNESDGHTTSLYGIGFGPFIITNKHLFRRNNGTLVVQSLHGVFKVKDTTTLQQHLVDGRDMIIIRMPKDFPPFPQKLKAREPQREERICLVTTNFQTKSMSSMVSDTSCTFPSGDGIFWKHWIQTKDGQCGSPLVSTRDGFIVGIHSASNFTNTNNYFTSVPKNFMELLTNQEAQQWVSGWRLNADSVLWGGHKVFMVKPEEPFQPVKEATQL [F101A] | 0.0727 |  |  |  | 0.0644 |  |  | 0.048 | 0.067 | 0.062 |  |  | 0.0544 | 0.0508 | 0.0608 | 0.0316 |  |  |  |
| MGESLFKGPRDYNPISSSICHLTNESDGHTTSLYGIGFGPFIITNKHLFRRNNGTLVVQSLHGVFKVKDTTTLQQHLVDGRDMIIIRMPKDFPPFPQKLKPREPQREERICLVTTNFQTKSMSSMVSDTSCTFPSGDGIFWKHWIQTKDGQCGSPLVSTRDGFIVGIHSASNFTNTNNYFTSVPKNFMELLTNQEAQQWVSGWRLNADSVLWGGHKVFMVKPEEPFQPVKEATQL [F101P] | 0.0624 |  |  | 0.0508 | 0.0317 | 0.0405 |  |  | 0.0546 | 0.0531 |  |  | 0.0485 | 0.0492 | 0.0603 |  | 0.0598 | 0.0553 | 0.0354 |
| MGESLFKGPRDYNPISSSICHLTNESDGHTTSLYGIGFGPFIITNKHLFRRNNGTLVVQSLHGVFKVKDTTTLQQHLVDGRDMIIIRMPKDFPPFPQKLKFREPQREERICLVTHNFQTKSMSSMVSDTSCTFPSGDGIFWKHWIQTKDGQCGSPLVSTRDGFIVGIHSASNFTNTNNYFTSVPKNFMELLTNQEAQQWVSGWRLNADSVLWGGHKVFMVKPEEPFQPVKEATQL [T115H] | 0.101 | 0.0532 | 0.0663 |  | 0.0849 |  |  |  | 0.101 |  |  |  |  |  | 0.0458 | 0.0675 |  |  | 0.06 |
| MGESLFKGPRDYNPISSSICHLTNESDGHTTSLYGIGFGPFIITNKHLFRRNNGTLVVQSLHGVFKVKDTTTLQQHLVDGRDMIIIRMPKDFPPFPQKLKFREPQREERICLVTINFQTKSMSSMVSDTSCTFPSGDGIFWKHWIQTKDGQCGSPLVSTRDGFIVGIHSASNFTNTNNYFTSVPKNFMELLTNQEAQQWVSGWRLNADSVLWGGHKVFMVKPEEPFQPVKEATQL [T115I] | 0.112 | 0.0732 | 0.0557 |  | 0.111 |  |  | 0.0641 | 0.0983 | 0.0641 |  |  |  | 0.0549 |  |  | 0.0837 | 0.0783 | 0.0662 |
| MGESLFKGPRDYNPISSSICHLTNESDGHTTSLYGIGFGPFIITNKHLFRRNNGTLVVQSLHGVFKVKDTTTLQQHLVDGRDMIIIRMPKDFPPFPQKLKFREPQREKRICLVTTNFQTKSMSSMVSDTSCTFPSGDGIFWKHWIQTKDGQCGSPLVSTRDGFIVGIHSASNFTNTNNYFTSVPKNFMELLTNQEAQQWVSGWRLNADSVLWGGHKVFMVKPEEPFQPVKEATQL [E108K] | 0.124 |  |  |  |  | 0.0641 |  | 0.0519 | 0.0602 | 0.0662 |  | 0.0413 |  | 0.0646 | 0.0528 | 0.0627 | 0.0592 | 0.0468 | 0.0519 |
| MGESLFKGPRDYNPISSSICHLTNESDGHTTSLYGIGFGPFIITNKHLFRRNNGTLVVQSLHGVFKVKDTTTLQQHLVDGRDMIIIRMPKDFPPFPQKLKFREPQREERICLVTTGFQTKSMSSMVSDTSCTFPSGDGIFWKHWIQTKDGQCGSPLVSTRDGFIVGIHSASNFTNTNNYFTSVPKNFMELLTNQEAQQWVSGWRLNADSVLWGGHKVFMVKPEEPFQPVKEATQL [N116G] | 0.088 |  |  |  |  | 0.0876 |  | 0.0498 | 0.0996 | 0.0562 |  |  | 0.0967 | 0.0605 |  |  |  |  | 0.1 |
| MGESLFKGPRDYNPISSSICHLTNESDGHTTSLYGIGFGPFIITNKHLFRRNNGTLVVQSLHGVFKVKDTTTLQQHLVDGRDMIIIRMPKDFPCFPQKLKFREPQREERICLVTTNFQTKSMSSMVSDTSCTFPSGDGIFWKHWIQTKDGQCGSPLVSTRDGFIVGIHSASNFTNTNNYFTSVPKNFMELLTNQEAQQWVSGWRLNADSVLWGGHKVFMVKPEEPFQPVKEATQL [P94C] | 0.122 |  |  |  |  | 0.0545 |  | 0.0688 | 0.105 | 0.0592 | 0.0545 |  |  |  |  |  | 0.0804 |  | 0.0667 |
